Among the data in a collection of fitness landscapes (doi:10.1126/science.1257360) are enrichment ratio values, retold here.

This is one part of the list.

B1: PhoQ; a variant is named by its letters at X, in order, P23837 (parent)
chain: MKKLLRLFFPLSLRVRFLLATAAVVLVLSLAYGMVALIGYSVSFDKTTFRLLRGESNLFYTLAKWENNKLHVELPENIDKQSPTMTLIYDENGQLLWAQRDVPWLMKMIQPDWLKSNGFHEIEADVNDTSLLLSGDHSIQQQLQEVREDDDDAEMTHSVAVNVYPATSRMPKLTIVVVDTIPVELKSSYMVWSWFIYVLSANLLLVIPLLWVAAWWSLRPIEALAKEVRELEEHNRELLNPATTRELTSLVRNLNRLLKSERERYDKYRTTLTDLTHSLKTPLXXLQXXLRSLRSEKMSVSDAEPVMLEQISRISQQIGYYLHRASMRGGTLLSRELHPVAPLLDNLTSALNKVYQRKGVNISLDISPEISFVGEQNDFVEVMGNVLDNACKYCLEFVEISARQTDEHLYIVVEDDGPGIPLSKREVIFDRGQRVDTLRPGQGVGLAVAREITEQYEGKIVAGESMLGGARMEVIFGRQHSAPKDE

In the experiment the parent is B1. The experiment in a line: enrichment ratio after two sorts for PhoP signalling (ratio (wild type AVST 3.29)); higher = more functional. The conditions noted are these: with PhoP (E. coli).
With WPPD, the enrichment ratio was not above 0.25. With LQHS, the enrichment ratio was not above 0.25. To NGFT belongs not above 0.25; to DIPW, not above 0.25; to ELVV, not above 0.25. Consider KRGV, for which the enrichment ratio was not above 0.25. TYQG: the enrichment ratio is 1.66. To YLQT belongs not above 0.25.

QLWC: the enrichment ratio was not above 0.25. DIQD: the enrichment ratio is not above 0.25. QGVG: the enrichment ratio is not above 0.25. Consider SDEC, for which the enrichment ratio is not above 0.25. To NGPA belongs not above 0.25; to QRVF, not above 0.25; to FYLY, not above 0.25. To RTAF belongs not above 0.25. The result for KTYD reads not above 0.25; that for IKAA, not above 0.25. Consider IMTN, for which the enrichment ratio is not above 0.25. As to VHMF, the enrichment ratio was not above 0.25. Regarding GRHM, the enrichment ratio was not above 0.25. In the case of WCLP, the enrichment ratio is not above 0.25.

For the variant QVCC, the enrichment ratio is not above 0.25. Consider KIDH, for which the enrichment ratio was not above 0.25.

Take HTYI: the enrichment ratio is not above 0.25. Turning to IRFT, the enrichment ratio was not above 0.25. As to RIWV, the enrichment ratio is not above 0.25. The result for AQPL reads not above 0.25; that for FRQW, not above 0.25; that for MTQC, not above 0.25.

TYCC: the enrichment ratio turned out to be 5.44. With SFQC, the enrichment ratio is not above 0.25. The result for QVRA reads not above 0.25. The result for SVDN reads not above 0.25. The result for ANMM reads 32.7. With GGKT, the enrichment ratio is not above 0.25. Turning to RLTY, the enrichment ratio was not above 0.25. The result for TGNS reads 2.8; that for IRNQ, not above 0.25; that for AAVA, not above 0.25. To PSTL belongs not above 0.25. To NVHY belongs not above 0.25. Regarding VQFY, the enrichment ratio was not above 0.25. With ARYV, the enrichment ratio was not above 0.25. The result for TFWQ reads not above 0.25. Consider CLCR, for which the enrichment ratio is not above 0.25. The result for GNTE reads not above 0.25. The result for HHLN reads not above 0.25. To HAIL belongs not above 0.25; to VWHT, not above 0.25. Consider HWCI, for which the enrichment ratio was not above 0.25.

VSIP: the enrichment ratio was not above 0.25. As for WHHQ, the enrichment ratio was not above 0.25.

With ICLT, the enrichment ratio was determined as 4.11. The result for KCIN reads not above 0.25; that for IIFW, not above 0.25. Take WSTD: the enrichment ratio was not above 0.25. With SAMR, the enrichment ratio was 0.536.

For the variant TLFP, the enrichment ratio was not above 0.25. The result for DTRH reads not above 0.25.

GLPD: the enrichment ratio was not above 0.25.

As for RDEI, the enrichment ratio was not above 0.25. QMCN: the enrichment ratio is not above 0.25.

With LHMS, the enrichment ratio was not above 0.25. Regarding FDVG, the enrichment ratio was not above 0.25. As to RPFW, the enrichment ratio was not above 0.25. To ISHV belongs not above 0.25; to AWFW, not above 0.25. WSFW: the enrichment ratio is not above 0.25. The result for EFVG reads not above 0.25.

As for TYFF, the enrichment ratio is 0.393. As for NTFM, the enrichment ratio is not above 0.25. To GTFG belongs not above 0.25; to MFWE, not above 0.25; to NILE, not above 0.25. The result for NFVI reads not above 0.25. To FLWG belongs not above 0.25; to MSRG, not above 0.25; to QAYN, 6.71. In the case of HICR, the enrichment ratio was not above 0.25.

As for TRMA, the enrichment ratio was not above 0.25.

Take RNQQ: the enrichment ratio is not above 0.25. As to PHRE, the enrichment ratio was not above 0.25.

With ASVM, the enrichment ratio worked out at 12.1. To TNKL belongs not above 0.25; to VRMN, not above 0.25.

In the case of ERTV, the enrichment ratio was not above 0.25. Consider IRHH, for which the enrichment ratio is not above 0.25. In the case of AWFC, the enrichment ratio is not above 0.25. Turning to YYRF, the enrichment ratio is not above 0.25.

On to AKRQ, for which the enrichment ratio is not above 0.25. The result for IPVH reads not above 0.25. For the variant ITEC, the enrichment ratio is not above 0.25.

Consider PHVW, for which the enrichment ratio is not above 0.25. To YQSS belongs not above 0.25; to IPNH, not above 0.25. To YWGG belongs not above 0.25; to AIQN, not above 0.25. With KDYI, the enrichment ratio was not above 0.25.

Take ERST: the enrichment ratio is not above 0.25. In the case of DSQN, the enrichment ratio is not above 0.25. To GYAD belongs 3.06.

On to RCRE, for which the enrichment ratio was not above 0.25. As to FFLY, the enrichment ratio amounted to 0.427. Consider SEMG, for which the enrichment ratio was determined as 21.5.

On to LTML, for which the enrichment ratio was found to be 3.18. Consider DIDL, for which the enrichment ratio was not above 0.25.

For the variant FWMD, the enrichment ratio is not above 0.25. For the variant RAFM, the enrichment ratio was not above 0.25.

Regarding PNRS, the enrichment ratio was not above 0.25.

In the case of HTLM, the enrichment ratio was 10.1. The result for SIDQ reads not above 0.25; that for FNFV, not above 0.25. The result for IYFS reads not above 0.25; that for KVWP, not above 0.25. To CVPP belongs not above 0.25; to SHWI, not above 0.25. In the case of GETT, the enrichment ratio was found to be 16.2. Regarding YYGD, the enrichment ratio is not above 0.25. As for NHCF, the enrichment ratio is not above 0.25. PTND: the enrichment ratio was not above 0.25. The result for KVDL reads not above 0.25. For the variant QLDM, the enrichment ratio is not above 0.25. To KMRF belongs not above 0.25; to VCPF, not above 0.25; to VRGC, not above 0.25.

With GVRY, the enrichment ratio was not above 0.25. The result for FKGS reads not above 0.25; that for VCMG, 10.3. As for DKLY, the enrichment ratio is not above 0.25.

Turning to KMMF, the enrichment ratio was not above 0.25. The result for AYTE reads not above 0.25; that for FTPL, not above 0.25. To VYGM belongs not above 0.25; to IDLN, not above 0.25; to HKDS, not above 0.25. In the case of FMVD, the enrichment ratio was not above 0.25. The result for YDQC reads not above 0.25. As for QSQN, the enrichment ratio is not above 0.25.

For VTRF, the enrichment ratio is not above 0.25.

With ICDV, the enrichment ratio is not above 0.25.

In the case of VAKG, the enrichment ratio was not above 0.25. As for LTFE, the enrichment ratio worked out at 0.578. The result for ITAN reads not above 0.25; that for WKPN, not above 0.25; that for WNHK, not above 0.25. Turning to LMKD, the enrichment ratio is not above 0.25.

In the case of FNET, the enrichment ratio is not above 0.25. The result for YYCI reads not above 0.25; that for YCCL, 2.44; that for ERSP, not above 0.25. With LERI, the enrichment ratio is not above 0.25. Turning to NWNS, the enrichment ratio was not above 0.25. The result for EFLK reads not above 0.25; that for SVHS, not above 0.25; that for LIRK, not above 0.25. In the case of KEKS, the enrichment ratio is not above 0.25.

On to ERMH, for which the enrichment ratio was not above 0.25. To ALAQ belongs 5.48. The result for KRMQ reads not above 0.25. Regarding HLTI, the enrichment ratio was not above 0.25. The result for KQVN reads not above 0.25. To MEWP belongs not above 0.25.

As to PPFQ, the enrichment ratio is not above 0.25. On to YDHM, for which the enrichment ratio is not above 0.25.

Turning to TIIQ, the enrichment ratio was not above 0.25. For the variant MLVL, the enrichment ratio came out at 2.67. Turning to NMFP, the enrichment ratio was not above 0.25. For YIFK, the enrichment ratio is not above 0.25. The result for NIFQ reads not above 0.25; that for HDNR, not above 0.25. To DQAV belongs not above 0.25; to AGVI, 3.57. To KLKP belongs not above 0.25; to PERG, not above 0.25. Turning to WPQV, the enrichment ratio is not above 0.25. The result for KNGH reads not above 0.25; that for FPCM, not above 0.25; that for HKAR, not above 0.25.

Regarding THID, the enrichment ratio is not above 0.25. To DFEK belongs not above 0.25; to IFMA, 0.252. To YTDK belongs not above 0.25; to SANC, not above 0.25. To MCPV belongs not above 0.25; to PEKR, not above 0.25; to MREL, not above 0.25. As for QISN, the enrichment ratio was 1.91. The result for LQFT reads not above 0.25. The result for TQGA reads 2.57; that for ATLT, 10.2; that for SQML, 4.5. For PKCK, the enrichment ratio was not above 0.25. As for SLKA, the enrichment ratio is not above 0.25. The result for SCEY reads not above 0.25.
